In the supplement of paper PMC6609913:
Where a name gives a salt, the structure may show the parent alone. ± gives the standard deviation of the averaged measurements. Whole data set: some 1,300 compounds, median “normalised cell viability” near 1, cut for the lowest 2% near 0.15. The list shows a part of the results.

System: V-C8 + BRCA2 (BRCA2-proficient hamster cells)
Test: normalised cell viability (fraction of plate median); higher = more viable cells (less toxic)
Conditions: 5 µM
Outline: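 BRCA2-deficient hamster V-C8 cells and BRCA2-restored V-C8 cells were plated in 96-well plates, and library drugs were added 24 h later at 5 μM in 100 μl medium. Exposure lasted 3 days in screen 1 and 6 days in screen 2, next to solvent-only wells. Viability was then read by resazurin assay, median-plate normalised and averaged across triplicate wells.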

Structure (SMILES) | normalised cell viability (treatment time: 3 days) | normalised cell viability (treatment time: 6 days)
CC(=O)OCC(=O)[C@@]12N=C(C)O[C@@H]1C[C@H]1[C@@H]3CCC4=CC(=O)C=C[C@]4(C)[C@H]3[C@@H](O)C[C@@]12C [Deflazacort] | 1.008 ± 0.0088 | 1.09 ± 0.035
O=C(O)Cc1sc(-c2ccccc2)nc1-c1ccc(Cl)cc1 [Fentiazac] | 0.884 ± 0.062 | 0.981 ± 0.068
OCc1cc(C(O)CNCCCCCCOCCCCc2ccccc2)ccc1O (stereo unspecified) [Salmeterol] | 0.881 ± 0.13 | 0.864 ± 0.019
CNCCC(Oc1ccc(C(F)(F)F)cc1)c1ccccc1 (stereo unspecified) [Fluoxetine hydrochloride] | 0.91 ± 0.021 | 0.897 ± 0.094
Cc1nc2n(c(=O)c1CCN1CCC(c3noc4cc(F)ccc34)CC1)CCCC2 [Risperidone] | 1.12 ± 0.019 | 1.06 ± 0.045
CC(=O)Nc1ccc(CC(=O)O)cc1 [Actarit] | 1.038 ± 0.0059 | 1.07 ± 0.12
CCS(=O)(=O)CCn1c([N+](=O)[O-])cnc1C [Tinidazole] | 1.007 ± 0.0078 | 1.06 ± 0.066
O=C1CCc2cc(OCCCCc3nnnn3C3CCCCC3)ccc2N1 [Cilostazol] | 1.048 ± 0.0038 | 0.947 ± 0.17
O=P(O)(O)C(Cl)(Cl)P(=O)(O)O [Clodronate] | 1.07 ± 0.05 | 1.01 ± 0.034
CCCCOc1cc(C(=O)NCCN(CC)CC)c2ccccc2n1 [Dibucaine] | 1 ± 0.025 | 1 ± 0.094
CCC1=C(C)CN(C(=O)NCCc2ccc(S(=O)(=O)NC(=O)N[C@H]3CC[C@H](C)CC3)cc2)C1=O [Glimepiride] | 1.22 ± 0.26 | 1.13 ± 0.068
CC1(C)NC(=O)N(c2ccc([N+](=O)[O-])c(C(F)(F)F)c2)C1=O [Nilutamide] | 1.05 ± 0.081 | 0.975 ± 0.015
CCCCC(CC)CNC(=N)NC(=N)NCCCCCCNC(=N)NC(=N)NCC(CC)CCCC (stereo unspecified) [Alexidine dihydrochloride] | 0.143 ± 0.002 | 0.149 ± 0.011
COC(=O)[C@@H]1[C@H]2C[C@H]3c4[nH]c5ccccc5c4CCN3C[C@@H]2CC[C@@H]1O [Yohimbine hydrochloride] | 0.989 ± 0.056 | 1.02 ± 0.081
Nc1nc(=O)c2c([nH]1)NC[C@@H](CNc1ccc(C(=O)N[C@@H](CCC(=O)O)C(=O)O)cc1)N2C=O [Folinic acid calcium salt] | 1.09 ± 0.0099 | 1.03 ± 0.055
COc1ccc2cc([C@@H](C)C(=O)O)ccc2c1 [(R) -Naproxen sodium salt] | 0.919 ± 0.028 | 0.896 ± 0.091
CCOC(=O)C1=C[C@]2(CC)CCCN3CCc4c(n1c1ccccc41)[C@@H]32 [Vinpocetine] | 0.995 ± 0.043 | 1.12 ± 0.092
COc1cnc(NS(=O)(=O)c2ccc(N)cc2)nc1 [Sulfameter] | 1.07 ± 0.031 | 1.07 ± 0.26
O=C(O)CCC(=O)Nc1ccc(S(=O)(=O)Nc2nccs2)cc1 [Succinylsulfathiazole] | 0.979 ± 0.083 | 1.04 ± 0.04
Cc1cccc(CN2CCN(C(c3ccccc3)c3ccc(Cl)cc3)CC2)c1 (stereo unspecified) [Meclozine dihydrochloride] | 1.12 ± 0.075 | 1.07 ± 0.082
COc1ccccc1O [Guaiacol] | 1.01 ± 0.038 | 1.03 ± 0.035
CCCCC(C)(O)C/C=C/[C@H]1[C@H](O)CC(=O)[C@@H]1CCCCCCC(=O)OC (mixture of isomers) [Misoprostol] | 0.976 ± 0.09 | 1.03 ± 0.024
CNCCC(Oc1ccccc1OC)c1ccccc1 (stereo unspecified) [Nisoxetine hydrochloride] | 1.04 ± 0.043 | 1.09 ± 0.049

Structure (SMILES) | normalised cell viability (treatment time: 3 days) | normalised cell viability (treatment time: 6 days)
CN(C)[C@@H]1C(O)=C(C(N)=O)C(=O)[C@@]2(O)C(O)=C3C(=O)c4c(O)ccc(Cl)c4[C@@](C)(O)[C@H]3C[C@@H]12 [Chlortetracycline hydrochloride] | 1.07 ± 0.042 | 0.9947 ± 0.0037
CC(=O)N(CC(C)C(=O)O)c1c(I)cc(I)c(N)c1I (stereo unspecified) [Iocetamic acid] | 1.04 ± 0.024 | 0.986 ± 0.02
COc1cc(C(=O)NC2CCCNC2)cc(OC)c1OC (stereo unspecified) [Troxipide] | 0.989 ± 0.027 | 0.983 ± 0.072
C[C@]12CC[C@@H]3c4ccc(O)cc4CC[C@H]3[C@@H]1CCC2=O [Estrone] | 0.964 ± 0.026 | 1.07 ± 0.038
CC1CS(=O)(=O)CCN1/N=C/c1ccc([N+](=O)[O-])o1 (stereo unspecified) [Nifurtimox] | 0.974 ± 0.035 | 0.927 ± 0.016
CN1CC2c3ccccc3Oc3ccc(Cl)cc3C2C1 (stereo unspecified) [Asenapine maleate] | 1.03 ± 0.032 | 1.04 ± 0.068
c1ccc2[nH]c(-c3cscn3)nc2c1 [Tiabendazole] | 1.05 ± 0.046 | 1 ± 0.019
CCCCCCCN(CC)CCCC(O)c1ccc(NS(C)(=O)=O)cc1 (stereo unspecified) [Ibutilide fumarate] | 1.06 ± 0.046 | 1.17 ± 0.35
COc1ccc(-c2cc(=O)c3c(O)cc(O[C@@H]4O[C@H](CO[C@@H]5O[C@@H](C)[C@H](O)[C@@H](O)[C@H]5O)[C@@H](O)[C@H](O)[C@H]4O)cc3o2)cc1O [Diosmin] | 1.09 ± 0.034 | 1.03 ± 0.033
CN(C)CCCO[C@@H]1[C@H]2OC(C)(C)O[C@H]2O[C@@H]1[C@H](O)CO [Amiprilose hydrochloride] | 1.02 ± 0.031 | 1.04 ± 0.05
C[C@]12CC[C@@H]3c4ccc(O)cc4CC[C@H]3[C@@H]1C[C@@H](O)[C@@H]2O [Estriol] | 1.12 ± 0.14 | 1.04 ± 0.067
CCc1cccc2c3c([nH]c12)C(CC)(CC(=O)O)OCC3 (stereo unspecified) [Etodolac] | 0.922 ± 0.034 | 1.04 ± 0.084
Cc1noc(NS(=O)(=O)c2ccc(N)cc2)c1C [Sulfisoxazole] | 1.12 ± 0.11 | 0.998 ± 0.045
CC[N+](CC)(CC)CCC(O)(c1ccccc1)C1CCCCC1 (stereo unspecified) [Tridihexethyl chloride] | 0.905 ± 0.044 | 1 ± 0.065
CC1=C(CC(=O)O)c2cc(F)ccc2/C1=C\c1ccc([S+](C)[O-])cc1 (stereo unspecified) [Sulindac] | 0.906 ± 0.042 | 0.972 ± 0.074
CC(Oc1c(Cl)cccc1Cl)C1=NCCN1 (stereo unspecified) [Lofexidine] | 0.953 ± 0.013 | 0.98 ± 0.012
CCOC(=O)[C@H](CCc1ccccc1)N[C@@H](C)C(=O)N1CCC[C@H]1C(=O)O [Enalapril maleate] | 0.99 ± 0.066 | 0.91 ± 0.079
CO/N=C(\C(=O)N[C@@H]1C(=O)N2C(C(=O)O)=C(C[N+]3(C)CCCC3)CS[C@H]12)c1csc(N)n1 [Cefepime hydrochloride] | 0.933 ± 0.092 | 0.888 ± 0.098
CC(=O)Nc1ccc(O)cc1 [Acetaminophen] | 0.948 ± 0.0095 | 1.1 ± 0.014
COc1ccc2[nH]c([S+]([O-])Cc3ncc(C)c(OC)c3C)nc2c1 (stereo unspecified) [Omeprazole] | 0.971 ± 0.06 | 0.983 ± 0.12
Cc1cc(-n2c(=O)[nH]c(=O)n(C)c2=O)ccc1Oc1ccc(SC(F)(F)F)cc1 [Toltrazuril] | 1.07 ± 0.05 | 1.07 ± 0.069
Cc1ccccc1N1C(=O)c2cc(S(N)(=O)=O)c(Cl)cc2NC1C (stereo unspecified) [Metolazone] | 1.18 ± 0.062 | 1.07 ± 0.065
OCCOCCN1CCN(C(c2ccccc2)c2ccc(Cl)cc2)CC1 (stereo unspecified) [Hydroxyzine dihydrochloride] | 1.14 ± 0.051 | 1.1 ± 0.087

Structure (SMILES) | normalised cell viability (treatment time: 3 days) | normalised cell viability (treatment time: 6 days)
C=CC1=C(C(=O)O)N2C(=O)[C@@H](NC(=O)/C(=N\OCC(=O)O)c3csc(N)n3)[C@H]2SC1 [Cefixime] | 1.02 ± 0.036 | 1.06 ± 0.042
Nc1cc(-c2ccncc2)c[nH]c1=O [Amrinone] | 0.934 ± 0.072 | 0.851 ± 0.077
c1ccc2c(c1)CCCc1cc(NCCN3CCOCC3)nnc1-2 | 0.803 ± 0.038 | 0.87 ± 0.091
COc1ccc(C[C@@H]2c3cc(OC)c(OC)cc3CC[N@+]2(C)CCC(=O)OCCCCCOC(=O)CC[N@@+]2(C)CCc3cc(OC)c(OC)cc3[C@H]2Cc2ccc(OC)c(OC)c2)cc1OC [Cisatracurium besylate] | 0.918 ± 0.088 | 0.916 ± 0.059
CC(N)C12CC3CC(CC(C3)C1)C2 (stereo unspecified) [Rimantadine Hydrochloride] | 1.05 ± 0.073 | 1.022 ± 0.0099
CCC(=O)OCC(=O)[C@@]1(OC(=O)CC)[C@H](C)C[C@H]2[C@H]3[C@H]([C@@H](O)C[C@@]21C)[C@@]1(C)C=CC(=O)C=C1C[C@H]3Cl [Alclometasone dipropionate] | 0.932 ± 0.084 | 1.07 ± 0.048
CN(CCOc1ccc(CC2SC(=O)NC2=O)cc1)c1ccccn1 (stereo unspecified) [Rosiglitazone Hydrochloride] | 1.04 ± 0.086 | 1.05 ± 0.088
CCCc1nc(C(C)(C)O)c(C(=O)O)n1Cc1ccc(-c2ccccc2-c2nnn[nH]2)cc1 [Olmesartan] | 1.03 ± 0.047 | 0.923 ± 0.087
N=C(N)N/N=C/c1c(Cl)cccc1Cl [Guanabenz acetate] | 1.1 ± 0.022 | 1.01 ± 0.082
OC(CCN1CCCCC1)(c1ccccc1)C1CCCCC1 (stereo unspecified) [Trihexyphenidyl-D,L Hydrochloride] | 1.24 ± 0.19 | 1.03 ± 0.056
CN(C)CCOC(=O)COc1ccc(Cl)cc1 [Meclofenoxate hydrochloride] | 1.02 ± 0.029 | 0.985 ± 0.046
CC(Oc1ccccc1)C(=O)N[C@@H]1C(=O)N2[C@@H]1SC(C)(C)[C@@H]2C(=O)O (stereo partly specified) [Phenethicillin potassium salt] | 0.942 ± 0.0098 | 0.975 ± 0.085
COc1ccc(C(=O)NCc2ccc(OCCN(C)C)cc2)cc1OC [Itopride] | 0.924 ± 0.1 | 0.984 ± 0.053
N[C@@H](C(=O)N[C@@H]1C(=O)N2C(C(=O)O)=C(Cl)CS[C@H]12)c1ccccc1 [Cefaclor hydrate] | 0.9927 ± 0.0084 | 1.02 ± 0.08
O=C1c2ccccc2S(=O)(=O)N1CCCCN1CCN(c2ncccn2)CC1 [Ipsapirone] | 1 ± 0.032 | 1.14 ± 0.077
Cn1c([N+](=O)[O-])cnc1COC(N)=O [Ronidazole] | 0.924 ± 0.017 | 0.91 ± 0.062
CN(C)[C@@H]1C(O)=C(C(N)=O)C(=O)[C@@]2(O)C(O)=C3C(=O)c4c(O)ccc(Cl)c4[C@@H](O)[C@H]3C[C@@H]12 [Demeclocycline hydrochloride] | 0.997 ± 0.0086 | 1.15 ± 0.28
Clc1ccc(COC(Cn2ccnc2)c2ccc(Cl)cc2Cl)c(Cl)c1 (stereo unspecified) [Miconazole] | 0.899 ± 0.034 | 0.753 ± 0.0086
Cc1cc(=O)n(-c2ccccc2)n1C [Antipyrine] | 0.997 ± 0.038 | 1.02 ± 0.046
NC12CC3CC(CC(C3)C1)C2 [Adamantamine fumarate] | 0.885 ± 0.035 | 0.95 ± 0.053
Cc1ccc(-c2ncc(Cl)cc2-c2ccc(S(C)(=O)=O)cc2)cn1 [Etoricoxib] | 1.04 ± 0.11 | 0.994 ± 0.091
CC1CCc2c(N3CCC(O)CC3)c(F)cc3c(=O)c(C(=O)O)cn1c23 (stereo unspecified) [Nadifloxacin] | 0.943 ± 0.06 | 0.916 ± 0.066
